# Results as given in article PMC4336329 (PLoS ONE, 2015).
# Out of some 310,000 compounds screened, about 14,000 (4.5%) showed an effect of 50% or more. Effects have a minus sign here. The list shows a part of the results.
# Target: human ether-à-go-go-related gene (hERG) potassium channel (human, UniProt Q12809)
# Assay: primary screen, population patch clamp on CHO cells stably expressing hERG
# 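Note: peak tail current of the secondary pulse compared with the same well before compound.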
# Sequence of human ether-à-go-go-related gene (hERG) potassium channel (Q12809 whole entry, looked up): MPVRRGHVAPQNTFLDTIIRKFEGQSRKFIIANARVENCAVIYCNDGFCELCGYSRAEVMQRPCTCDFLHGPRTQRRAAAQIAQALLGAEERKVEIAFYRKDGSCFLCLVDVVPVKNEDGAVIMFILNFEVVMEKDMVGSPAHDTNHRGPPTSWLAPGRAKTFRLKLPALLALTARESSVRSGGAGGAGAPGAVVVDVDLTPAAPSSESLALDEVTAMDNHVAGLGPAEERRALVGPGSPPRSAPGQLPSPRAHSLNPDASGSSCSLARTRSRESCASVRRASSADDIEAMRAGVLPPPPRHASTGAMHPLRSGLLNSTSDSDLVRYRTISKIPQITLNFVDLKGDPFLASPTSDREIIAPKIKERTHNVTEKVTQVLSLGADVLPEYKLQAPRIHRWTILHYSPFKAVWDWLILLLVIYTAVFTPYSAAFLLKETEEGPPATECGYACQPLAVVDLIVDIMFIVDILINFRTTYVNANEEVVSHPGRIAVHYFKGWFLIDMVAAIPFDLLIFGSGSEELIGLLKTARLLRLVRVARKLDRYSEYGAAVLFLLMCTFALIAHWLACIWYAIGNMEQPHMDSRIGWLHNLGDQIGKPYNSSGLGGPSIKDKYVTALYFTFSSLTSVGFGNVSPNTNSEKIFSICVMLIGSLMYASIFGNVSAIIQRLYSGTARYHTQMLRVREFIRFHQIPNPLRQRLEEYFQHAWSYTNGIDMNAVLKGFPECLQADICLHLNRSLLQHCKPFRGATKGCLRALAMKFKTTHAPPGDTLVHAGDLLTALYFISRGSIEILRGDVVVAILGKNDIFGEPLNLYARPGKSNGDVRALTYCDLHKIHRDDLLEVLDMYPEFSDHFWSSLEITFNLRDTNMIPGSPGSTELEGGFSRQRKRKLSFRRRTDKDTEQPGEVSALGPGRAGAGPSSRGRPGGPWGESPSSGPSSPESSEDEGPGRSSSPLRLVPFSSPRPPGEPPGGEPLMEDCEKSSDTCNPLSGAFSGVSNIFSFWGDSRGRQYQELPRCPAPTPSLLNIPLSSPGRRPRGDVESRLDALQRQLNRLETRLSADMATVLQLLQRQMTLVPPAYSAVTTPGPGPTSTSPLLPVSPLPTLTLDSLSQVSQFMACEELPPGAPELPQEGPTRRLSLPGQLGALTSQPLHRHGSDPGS
row,SMILES,"hERG current change (%, negative = inhibition) at 10uM [%]"
1,CCOC(=O)C1(CCOc2ccccc2)CCN(Cc2ccc(OC)cc2)CC1,-75.1
2,CCOC(=O)Nc1nnc(-c2ccccc2OC)s1,-0.581
3,CSc1nc(-c2ccccc2)nc(N2CCN(C)CC2)c1C(C)=O,-26.1
4,O=C(c1ccco1)N1CCN(C(=O)c2oc(=O)c3ccccc3c2-c2ccccc2)CC1,-50.7
5,Nc1cc(N2CCCCC2)c([N+](=O)[O-])cc1Cl,-11.2
6,CC(C)NC(=S)NC(=O)/C=C/c1ccc(F)cc1,7.17
7,CCN(CC)CCCN(C(=O)c1ccc(Br)cc1)c1nc(-c2ccc(OC)cc2)cs1.Cl,-73.2
8,CCCCNC(=O)c1ccc2c(c1)N(C)C(=O)c1ccccc1S2,-27.6
9,C=C(C)c1cccc(C(C)(C)NC(=O)N2CCN(CC(N)=O)CC2)c1,11.3
10,COCCN(Cc1cc2ccc(C)cc2n2nnnc12)Cc1nnnn1C(C)(C)C,-41
11,Cc1cc(C)nc(-n2nc(C)c3c(=O)[nH]c(C(F)(F)F)nc32)n1,13.5
12,O=C(c1ccc(S(=O)(=O)NCC2CCCO2)cc1)N1CCc2ccccc21 (stereo not drawn),-14.2
13,c1ccc(-n2ncc3c(NCc4ccccn4)ncnc32)cc1,0.854
14,COc1ccc(OCCOC(=O)CNS(=O)(=O)c2ccc(SC)c([N+](=O)[O-])c2)cc1,-39.2
15,CCC1(c2ccc(F)cc2)NC(=O)NC1=O (stereo not drawn),16.7
16,CCCN1C(=O)S/C(=C\c2ccc(N3CCOCC3)o2)C1=O,-11.9
17,COC(=O)C[C@H]1c2cc(C(F)(F)F)ccc2S(=O)(=O)N1C(C)(C)C,4.42
18,COc1cc(C)c(CN2CCC(n3nccc3NC(=O)C3CCOC3)CC2)cc1C (stereo not drawn),-18.2
19,CCCN(C(=O)COC(=O)COc1c(C)cccc1C)c1c(N)n(Cc2ccccc2)c(=O)[nH]c1=O,15.5
20,CCC1(C)Cc2c(C#N)c(N)sc(=S)c2CO1 (stereo not drawn),-4.32
21,COc1cc2c(cc1OC)CN(C(=S)Nc1ccc(Cl)cc1)CC2,20.1
22,Cc1ccc(C)c(Cn2c(CO)nc3ccccc32)c1,-6.43

row,SMILES,"hERG current change (%, negative = inhibition) at 10uM [%]"
1,O=C(NC1CC2CCCC(C1)N2Cc1ccccc1)c1cccc(Cl)c1 (stereo not drawn),-57.9
2,O=c1c(-c2ccc(O)cc2)coc2cc(OC3OC(CO)C(O)C(O)C3O)cc(O)c12 (stereo not drawn),5.05
3,Cc1ccccc1-c1ncc(CN2CCN(C3CCCC3)C(CCO)C2)cn1 (stereo not drawn),-25.8
4,O=C(NCC(c1ccco1)N1CCOCC1)c1ccc(F)cc1 (stereo not drawn),3.81
5,NNC(=O)c1cc2sccc2s1,13.2
6,C=CCN1C(=O)C2C(C(=O)NC)C3(C)C=CC2(O3)C1C(=O)NCc1ccc(OC)cc1 (stereo not drawn),5.92
7,CCOc1ccc(/C=N/NC(=O)c2[nH]ncc2Br)c(O)c1,4.05
8,Cc1ccccc1N1CCN(C2=NC(=O)/C(=C\c3cccs3)S2)CC1,-10.8
9,CC(NC(=O)c1cccc(F)c1)C1CC2CCC1C2 (stereo not drawn),-3.54
10,O=C1CSC(c2cccc([N+](=O)[O-])c2)N1c1c(F)cccc1F (stereo not drawn),-2.64
11,Cc1ccc(CN2CCN(Cc3cccc(C)n3)CC2CCO)cc1 (stereo not drawn),-40.2
12,O=C(NC1CCCCC1)C(c1cccnc1)N(C(=O)CCl)c1ccc(F)cc1 (stereo not drawn),3.93
13,Cc1ccc(N2C(=O)C(CN3CCCC3)C2c2ccccc2)cc1 (stereo not drawn),-78.5
14,Cc1ccc2[nH]cc(CCNC(=O)c3cccnc3)c2c1,-30.5
15,CCS(=O)(=O)N1Cc2ccccc2CC1C(=O)N(C)Cc1ccc(OC)cc1OC (stereo not drawn),16.9
16,COC(=O)c1ccccc1NC(=O)CSc1nnc(COc2cccc(OC)c2)n1C,-35
17,Cc1cc([N+](=O)[O-])nn1CC(=O)N/N=C/c1ccccc1Br,7.44
18,O=C(NCCC(=O)N(CCc1ccccc1)Cc1ccccc1)c1ccccc1Cl,-72.9
19,COc1cc2c(cc1OC)C(C)N(C(=O)c1sc(-c3cnccn3)nc1C)CC2 (stereo not drawn),-4.52
20,COc1ccccc1CCNC(=O)CCn1c(=O)c2cccn2c2ccc(F)cc21,5.9
21,COc1ccc(-c2cc(C(=O)Nc3nc4c(C)cccc4s3)c3ccccc3n2)cc1OC,-5.91
22,CC1Sc2ccc(S(=O)(=O)CCC(=O)Nc3cc(F)ccc3F)cc2NC1=O (stereo not drawn),-29.1

row,SMILES,"hERG current change (%, negative = inhibition) at 10uM [%]"
1,O=C(c1cccnc1)N1CCN(C/C=C/c2ccccc2)CC1,15.1
2,CC(Oc1ccc2c3c(c(=O)oc2c1)CCCC3)C(=O)NCCN1CCOCC1 (stereo not drawn),59.8
3,c1cnc2c(OCc3nc4ccccc4[nH]3)cccc2c1,-0.178
4,Cc1ccc(S(=O)(=O)CCC(=O)c2cccc([N+](=O)[O-])c2)cc1,7.64
5,COc1ccccc1OCCNc1cc(N2CCCCC2)ccc1[N+](=O)[O-],8.25
6,COc1ccc(C)cc1NC(=O)CSc1nc(=O)n(CCCN2CCOCC2)c2c1CCCC2,-28.6
7,Cc1cccc(C)c1OCC(O)CNS(=O)(=O)c1ccccc1C(=O)N1CCCCC1 (stereo not drawn),-10.9
8,Nc1nnc(SCc2nnc(-c3ccccc3)o2)s1,-1.84
9,CNC(=O)COC(=O)c1ccc(Cl)c(S(=O)(=O)N2CCCC2)c1,3.39
10,Cc1ccccc1NC(=O)CSc1nc(O)cc(=O)n1C,-1.28
11,CN(Cc1cnccn1)Cc1nc(Cc2ccccc2Cl)no1,7.22
12,O=C(CCc1ccccn1)N1CCCC(N2CCN(c3cccc(C(F)(F)F)c3)CC2)C1 (stereo not drawn),-68.2
13,CCOC(=O)c1c(NC(=O)CN2CCOCC2)sc2c1CC(C)(C)OC2,-13.4
14,O=C(c1cc(-c2ccccc2)on1)N1CCN(c2ccccc2)CC1,15.9
15,O=C(CNC(=O)c1ccco1)OCC(=O)c1ccc([N+](=O)[O-])cc1,11.9
16,CCOc1ccccc1OCC(=O)NNC(=S)NC1CCCCC1,14
17,Cc1ccc(C)c(CSC2=NCCN2C(=O)Cc2ccc([N+](=O)[O-])cc2)c1,-4.06
18,CN1CCN(/N=C/c2ccc(-c3ccc([N+](=O)[O-])cc3Cl)o2)CC1,-46.2
19,CCCCN(C(=O)CSc1nn(-c2ccc(F)cc2)c(=S)s1)c1c(N)n(CCCC)c(=O)[nH]c1=O,-11.8
20,Cc1cccc(NC(=O)CSCC(=O)N2CCCc3ccccc32)c1,5.8
21,CCOC(=O)C1(CCc2ccccc2)CCN(Cc2cccc3c2OCO3)CC1,-75
22,CC1(NC(=O)CSc2nnc(-c3ccco3)n2Cc2ccccc2)CCS(=O)(=O)C1 (stereo not drawn),-11.8

row,SMILES,"hERG current change (%, negative = inhibition) at 10uM [%]"
1,C=CCn1c2ccccc2c2nnc(SCC(=O)Nc3cc(C)on3)nc21,-8.39
2,COc1ccccc1NC(=O)Cn1c(=O)sc2ccccc21,-1.61
3,CC1(C)N(O)CC(c2cccs2)=[N+]1[O-],4.5
4,CC(=O)N(Cc1cc(=O)[nH]c2ccccc12)c1ccccc1,5.79
5,CCOC(=O)[C@H]1[C@H]2COc3ccc(OC)cc3[C@@H]2N2C(=O)c3ccccc3NC(=O)[C@@]12C,4.24
6,Cc1ccc(CN2CCSc3ccc(C(=O)N4CCN(c5ncccn5)CC4)cc32)cc1,19
7,CC(C)Cc1nnc(NC(=O)CCC(=O)NC2CCCCCC2)s1,-48.6
8,CCc1ccc(NC(=O)N(CCN(C)C)C(C)c2cccnc2)cc1 (stereo not drawn),-21.4
9,CC1CCN(CC(=O)c2ccc3c(c2)OCCO3)CC1.O=C(O)C(=O)O,10.2
10,COc1ccc(CNc2oc(-c3cccc4ccccc34)nc2C#N)cc1,1.57
11,CC1(c2ccccc2)NC(=O)N(CC(=O)Nc2cc(S(=O)(=O)N3CCOCC3)ccc2Cl)C1=O (stereo not drawn),-7.82
12,Cc1nnc(SCc2ccc(CSc3nnc(C)c(=O)[nH]3)cc2)[nH]c1=O,19.9
13,O=C(NCCSc1c[nH]c2ccccc12)c1ccc(Br)o1,-9.5
14,Cc1cccc(Nc2ccncc2S(=O)(=O)NC(=O)NC(C)C)c1,2.65
15,CCCCCc1cc(=O)oc2c(C(CCN3CCCC(C)C3)c3cc(OC)c(OC)c(OC)c3)c(OC)cc(OC)c12 (stereo not drawn),-64.4
16,COC(=O)c1cccc(N=Cc2c(O)n(Cc3ccc(F)cc3)c(=O)[nH]c2=O)c1,10.6
17,Cc1ccc(-c2cc(-c3nnc(SCC(=O)N(C)CCC#N)n3N)c3ccccc3n2)cc1,-4.08
18,Cc1ccc(CCC(=O)Nc2ccc(Br)cc2)o1,2.32
19,Cc1ccc(Cl)c2c(N=Nc3ccccc3)c(O)[nH]c12,11.4
20,COc1ccc(C(=O)NCc2nnc(SCC(=O)N3CCC(C)CC3)o2)cc1,16.8
21,O=S(=O)(/C=C/c1ccccc1)NC1CCCCCC1,-16.5
